This note sets out measurements from the antibiotic and cytotoxicity screens of Wong et al. (2023).

The list shows a part of the results.

In the assay the test system is HSkMC (human skeletal muscle cells). As to the kind of experiment: cytotoxicity call (relative viability < 0.9). To be noted: 10 µM.
For `Cc1ccc(S(=O)(=O)N(C)C[C@H]2Oc3ccc(NC(=O)CCN4CCOCC4)cc3CC(=O)N([C@@H](C)CO)C[C@H]2C)cc1`, the cytotoxicity call was “inactive”.

On to `COc1ccc(CN(C)C[C@H]2OCCCC[C@@H](C)Oc3ccc(NS(=O)(=O)c4ccc(C)cc4)cc3C(=O)N([C@H](C)CO)C[C@@H]2C)cc1`, for which the cytotoxicity call was “inactive”.

Turning to `CCCN(CCC)S(=O)(=O)c1ccc(C(=O)N(c2cccc(SC)c2)[C@H]2OC(=O)c3ccccc32)cc1`, the cytotoxicity call is “inactive”.

For `COc1ccc(S(=O)(=O)Nc2cccc3c2O[C@H](CN(C)S(=O)(=O)c2cn(C)cn2)[C@H](C)CN([C@@H](C)CO)C3=O)cc1`, the cytotoxicity call was “inactive”.

On to `C[C@H](CO)N1C[C@H](C)[C@H](CN(C)Cc2ccc(Oc3ccccc3)cc2)Oc2c(NS(=O)(=O)c3ccc(Cl)cc3)cccc2C1=O`, for which the cytotoxicity call was “inactive”.

Regarding `O=C(C[C@H]1CC[C@@H]2[C@H](COC[C@H](O)CN2Cc2cc(F)ccc2F)O1)N[C@@H]1CCN(Cc2ccccc2)C1`, the cytotoxicity call is “inactive”.

`C[C@@H]1CN([C@H](C)CO)C(=O)c2cc(NC(=O)Nc3ccc4c(c3)OCO4)ccc2O[C@@H](C)CCCCO[C@H]1CN(C)S(=O)(=O)c1ccccc1`: the cytotoxicity call was “inactive”.

On to `C[C@@H]1CN([C@@H](C)CO)C(=O)c2cccc(NC(=O)c3cnccn3)c2O[C@H]1CN(C)S(C)(=O)=O`, for which the cytotoxicity call was “inactive”.

Turning to `C[C@H]1CCCCO[C@H](CN(C)CC2CC2)[C@@H](C)CN([C@@H](C)CO)C(=O)c2cc(NC(=O)Nc3ccccc3)ccc2O1`, the cytotoxicity call was “inactive”.

With `Cc1noc(C)c1S(=O)(=O)Nc1ccc2c(c1)C(=O)N([C@H](C)CO)C[C@@H](C)[C@H](CN(C)Cc1ccncc1)O2`, the cytotoxicity call was “inactive”.

Regarding `Cc1cc(C(=O)Nc2cccc3c2O[C@H](CN(C)C(=O)NC(C)C)[C@@H](C)CN([C@H](C)CO)C3=O)n(C)n1`, the cytotoxicity call was “inactive”.

`C[C@@H](NC(=O)N(C)C[C@H]1OCc2ccccc2-c2c(n(C)c3ccccc23)C(=O)N([C@@H](C)CO)C[C@@H]1C)c1ccccc1`: the cytotoxicity call is “inactive”.

For `C[C@@H]1CCCCO[C@@H](CN(C)Cc2ccncc2)[C@H](C)CN([C@H](C)CO)C(=O)c2cc(NC(=O)Cc3ccccc3)ccc2O1`, the cytotoxicity call was “inactive”.

On to `C[C@@H](O[C@H]1OCCN(Cc2n[nH]nc2CN(C)C)[C@H]1c1ccc(F)cc1)c1cc(C(F)(F)F)cc(C(F)(F)F)c1`, for which the cytotoxicity call is “inactive”.

As for `COc1ccc2c(c1)OCC(=Cc1ccc(OC)c(O)c1)C2=O`, the cytotoxicity call was “inactive”.

With `CC(C)NC(=O)N(C)C[C@H]1Oc2c(NS(=O)(=O)c3ccccc3)cccc2C(=O)N([C@H](C)CO)C[C@H]1C`, the cytotoxicity call is “inactive”.

Consider `Cc1ccc(S(=O)(=O)N(C)C[C@H]2Oc3c(NC(=O)Nc4cccc5ccccc45)cccc3C(=O)N([C@H](C)CO)C[C@H]2C)cc1`, for which the cytotoxicity call is “inactive”.

`CN1C(=O)c2cc(NC(=O)Cc3cccs3)ccc2OC[C@H]2O[C@H](CC(=O)NCc3ccc(-c4ccccc4)cc3)CC[C@@H]21`: the cytotoxicity call was “inactive”.

Turning to `CO[C@@H]1[C@H](N(C)C(=O)c2ccccc2)C[C@H]2O[C@]1(C)n1c3ccccc3c3c4c(c5c6ccccc6n2c5c31)C(=O)NC4`, the cytotoxicity call is “inactive”.

Take `Cc1noc(C)c1S(=O)(=O)N(C)C[C@@H]1Oc2c(NS(=O)(=O)c3cn(C)cn3)cccc2C(=O)N([C@H](C)CO)C[C@@H]1C`: the cytotoxicity call is “inactive”.

Turning to `C[C@@H]1CCCCO[C@H](CN(C)C(=O)Nc2ccccc2)[C@H](C)CN([C@@H](C)CO)C(=O)c2cc(NC(=O)Cc3ccccc3)ccc2O1`, the cytotoxicity call was “inactive”.

For the compound `C[C@@H]1CCCCO[C@H](CN(C)S(C)(=O)=O)[C@@H](C)CN([C@H](C)CO)C(=O)c2cc(NC(=O)Nc3cccc4ccccc34)ccc2O1`, the cytotoxicity call was “inactive”.

For the compound `C[C@@H]1CN([C@H](C)CO)S(=O)(=O)c2ccc(C#CCN(C)C)cc2O[C@H]1CN(C)C`, the cytotoxicity call is “inactive”.

As to `C[C@@H]1CCCCO[C@@H](CN(C)C(=O)Nc2ccccc2)[C@H](C)CN([C@@H](C)CO)C(=O)c2cc(NC(=O)Nc3ccc(C(F)(F)F)cc3)ccc2O1`, the cytotoxicity call is “inactive”.

With `O=C(C[C@@H]1CC[C@@H]2[C@H](COC[C@H](O)CN2C(=O)c2ccccc2)O1)N1CCOCC1`, the cytotoxicity call is “inactive”.

As to `C[C@H]1CN([C@@H](C)CO)C(=O)Cc2cc(NC(=O)c3ccncc3)ccc2O[C@H]1CN(C)S(=O)(=O)c1ccccc1`, the cytotoxicity call is “inactive”.

As to `COc1ccc(C#Cc2cnc3c(c2)C(=O)N([C@@H](C)CO)C[C@@H](C)[C@@H](CN(C)C(=O)CC2CC2)O3)cc1`, the cytotoxicity call is “inactive”.

As to `C[C@@H]1CN([C@H](C)CO)C(=O)c2cc(NC(=O)NC3CCCCC3)ccc2O[C@@H](C)CCCCO[C@H]1CN(C)Cc1ccncc1`, the cytotoxicity call is “inactive”.
